# Assay results: the supplement of paper PMC8728848
# The list shows a part of the results.
# B1: a L Fucosidase (Streptosporangium roseum), D2B1P1_STRRD (protein)
# chain: MRRKLLLVPAVGLLVIGSIFATQPVASADTPPVYEPTVESLNSHPVPQWFNDDKFGIFIHWGAYSVPAWGPRGSYAEWYGNYMNAGGSATNAHHKATYGQDFNYDAFLQQWKAEKFDPADWVKLFKDAGAKYFVLTSKHHEGMALWDSKSSGRDSVDLGPGRDLAKELFDAARKDEAKLKAGFYYSLYEWYNPAYTGRPATNPYTGAEIPYTGAPGGGDYVKDYMLPQMRELIDGYDPDIIWCDGQWEKPASYWNTAGVIADYYNKALNSGKEVAVANRCKIQSGNLDSPELDFQTPEYTVKPDIDPVKWESSRGIAHSYGYNQNEPEEDHLTSDQLVDSLVDIVSKNGNLLLDIGPKADGTIPEIQRQRLLDIGAWLKANGEAIYGTTYWNRAEEKGGPDDVRYTAKDATLYATALKWPGEQLTLGADLPVDHSTRITMLGSGARLSWSRDEQGRVVVNTPQEAGKHAYVFKIETPGVRSLLRTSSSLAKEIAPGRTISGELTVTNPGKRHTPATKLSLTVPQGWTATLGAPRVRPLGPGESVKVPISVSAPEGVAPAPYTLGLYQRTGRMGTTTALPLTVNRPNLSLGKPATQKSTGYDAPASRAVDGNTGGDWSAGSTTHTAEPEKQAWWQVDLGASARLDSVDVWNRLDCCADRLKDFWVMASDQPFTTDDLDQARTAPGVTAVHVGEQAGSPSKVKLPEGTRGRYVRIQLASPSNPLSLAEVQVRGSMARPNLSLGKPATQKSTGYDAPASRAVDGNTGGDWSAGSTTHTAEPEKQAWWQVDLGASARLDSVDVWNRLDCCADRLKDFWVMASDQPFTTDDLDQARTAPGVTAVHVGEQAGSPSKVKLPEGTRGRYVRIQLASPSNPLSLAEVQVRLEHHHHHHS
# What was measured:
# Assay in all cases: glycan array binding signal (z-score within array); higher = stronger binding
# Details in all cases: glycan notation: IUPAC condensed, linker removed
# [1] = target: Neu5Ac(a2-3)Gal(b1-4)GlcNAc(b1-3)[Neu5Ac(a2-3)Gal(b1-4)GlcNAc(b1-6)]GalNAc
# Outline: (§1)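 Glycan array data were curated from 3228 arrays in the Consortium for Functional Glycomics database and kept only where the protein sequence was available. Glycan names were converted to IUPAC-condensed notation, and columns mapping to the same glycan were averaged. The binding signal is a within-array Z-score, averaged across arrays of the same protein sequence at different concentrations or buffers and across linkers. Negative Z-scores can be read as non-binding.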
# [2] = target: Neu5Ac(a2-3)Gal(b1-4)GlcNAc(b1-6)GalNAc
# Outline: as §1
# [3] = target: Neu5Ac(a2-3)Gal(b1-4)GlcNAc(b1-6)[Gal(b1-3)]GalNAc
# Outline: as §1
# [4] = target: Neu5Ac(a2-3)Gal(b1-4)GlcNAc(b1-6)[Neu5Ac(a2-3)Gal(b1-3)]GalNAc
# Outline: as §1
# [5] = target: Neu5Ac(a2-3)Gal(b1-4)GlcNAc6S
# Outline: as §1
# [6] = target: Neu5Ac(a2-3)Gal(b1-4)[Fuc(a1-3)]GlcNAc
# Outline: as §1
# [7] = target: Neu5Ac(a2-3)Gal(b1-4)[Fuc(a1-3)]GlcNAc(b1-2)Man
# Outline: as §1
# [8] = target: Neu5Ac(a2-3)Gal(b1-4)[Fuc(a1-3)]GlcNAc(b1-3)Gal
# Outline: as §1
# [9] = target: Neu5Ac(a2-3)Gal(b1-4)[Fuc(a1-3)]GlcNAc(b1-3)Gal(b1-4)GlcNAc
# Outline: as §1
# [10] = target: Neu5Ac(a2-3)Gal(b1-4)[Fuc(a1-3)]GlcNAc(b1-3)Gal(b1-4)[Fuc(a1-3)]GlcNAc(b1-3)Gal(b1-4)[Fuc(a1-3)]GlcNAc
# Outline: as §1
# [11] = target: Neu5Ac(a2-3)Gal(b1-4)[Fuc(a1-3)]GlcNAc(b1-3)GalNAc
# Outline: as §1
# [12] = target: Neu5Ac(a2-3)Gal(b1-4)[Fuc(a1-3)]GlcNAc(b1-6)[Gal(b1-3)]GalNAc
# Outline: as §1
# [13] = target: Neu5Ac(a2-3)Gal(b1-4)[Fuc(a1-3)]GlcNAc(b1-6)[Neu5Ac(a2-3)Gal(b1-3)]GalNAc
# Outline: as §1
# [14] = target: Neu5Ac(a2-3)Gal(b1-4)[Fuc(a1-3)]GlcNAc6S
# Outline: as §1
# [15] = target: Neu5Ac(a2-3)Gal6S(b1-4)GlcNAc
# Outline: as §1
# [16] = target: Neu5Ac(a2-3)Gal6S(b1-4)[Fuc(a1-3)]GlcNAc
# Outline: as §1
# Neu5Ac(a2-3)GalNAc = target: Neu5Ac(a2-3)GalNAc
# Outline: as §1
# [17] = target: Neu5Ac(a2-3)GalNAc(b1-4)GlcNAc
# Outline: as §1
# [18] = target: Neu5Ac(a2-3)[GalNAc(b1-4)]Gal(b1-4)Glc
# Outline: as §1
# [19] = target: Neu5Ac(a2-3)[GalNAc(b1-4)]Gal(b1-4)GlcNAc
# Outline: as §1
# [20] = target: Neu5Ac(a2-3)[GalNAc(b1-4)]Gal(b1-4)GlcNAc(b1-3)GalNAc
# Outline: as §1
# [21] = target: Neu5Ac(a2-3)[Neu5Ac(a2-6)]GalNAc
# Outline: as §1
# Neu5Ac(a2-6)Gal = target: Neu5Ac(a2-6)Gal
# Outline: as §1
# [22] = target: Neu5Ac(a2-6)Gal(b1-3)GlcNAc(b1-3)[Gal(b1-4)GlcNAc(b1-6)]Gal(b1-4)Glc
# Outline: as §1
# Neu5Ac(a2-6)Gal(b1-4)Glc = target: Neu5Ac(a2-6)Gal(b1-4)Glc
# Outline: as §1
# [23] = target: Neu5Ac(a2-6)Gal(b1-4)GlcNAc
# Outline: as §1
# [24] = target: Neu5Ac(a2-6)Gal(b1-4)GlcNAc(b1-2)Man
# Outline: as §1
# [25] = target: Neu5Ac(a2-6)Gal(b1-4)GlcNAc(b1-2)Man(a1-3)Man(b1-4)GlcNAc(b1-4)GlcNAc
# Outline: as §1
# [26] = target: Neu5Ac(a2-6)Gal(b1-4)GlcNAc(b1-2)Man(a1-3)[Gal(b1-4)GlcNAc(b1-2)Man(a1-6)]Man(b1-4)GlcNAc(b1-4)GlcNAc
# Outline: as §1
# [27] = target: Neu5Ac(a2-6)Gal(b1-4)GlcNAc(b1-2)Man(a1-3)[GlcNAc(b1-4)][Neu5Ac(a2-6)Gal(b1-4)GlcNAc(b1-2)Man(a1-6)]Man(b1-4)GlcNAc(b1-4)GlcNAc
# Outline: as §1
binder,measurement,setting,value
B1,glycan array binding signal (z-score),[1],-0.545
same,glycan array binding signal (z-score),[2],-0.204
same,glycan array binding signal (z-score),[3],0.139
same,glycan array binding signal (z-score),[4],-0.417
same,glycan array binding signal (z-score),[5],-0.48
same,glycan array binding signal (z-score),[6],-0.53
same,glycan array binding signal (z-score),[7],-0.149
same,glycan array binding signal (z-score),[8],-0.428
same,glycan array binding signal (z-score),[9],-0.252
same,glycan array binding signal (z-score),[10],-0.37
same,glycan array binding signal (z-score),[11],0.067
same,glycan array binding signal (z-score),[12],-0.531
same,glycan array binding signal (z-score),[13],-0.42
same,glycan array binding signal (z-score),[14],-0.247
same,glycan array binding signal (z-score),[15],-0.478
same,glycan array binding signal (z-score),[16],-0.575
same,glycan array binding signal (z-score),Neu5Ac(a2-3)GalNAc,0.096
same,glycan array binding signal (z-score),[17],0.076
same,glycan array binding signal (z-score),[18],-0.455
same,glycan array binding signal (z-score),[19],-0.513
same,glycan array binding signal (z-score),[20],-0.361
same,glycan array binding signal (z-score),[21],0.375
same,glycan array binding signal (z-score),Neu5Ac(a2-6)Gal,-0.528
same,glycan array binding signal (z-score),[22],-0.585
same,glycan array binding signal (z-score),Neu5Ac(a2-6)Gal(b1-4)Glc,-0.462
same,glycan array binding signal (z-score),[23],-0.397
same,glycan array binding signal (z-score),[24],-0.199
same,glycan array binding signal (z-score),[25],-0.533
same,glycan array binding signal (z-score),[26],-0.324
same,glycan array binding signal (z-score),[27],0.008
